Measurements from a compilation of properties of binary mixtures (doi:10.1021/acs.jced.1c00924).
Some of these densities may be calculated back from excess volumes.

Experiment: xn = mol fraction of the nth substance listed
Settings: 100 kPa

For `CCOP(=O)([O-])OCC.CC[n+]1ccn(C)c1` + CCO, the mass density (293.15 K, x1 = 0.0201) was 819 kg/m3, the mass density (293.15 K, x1 = 0.0397) was 845 kg/m3 and the mass density (293.15 K, x1 = 0.0802) was 889 kg/m3. It also gave a mass density (293.15 K, x1 = 0.1002) of 907 kg/m3, a mass density (293.15 K, x1 = 0.12) of 923 kg/m3 and a mass density (293.15 K, x1 = 0.16) of 952 kg/m3. The mass density (293.15 K, x1 = 0.1992) was 975 kg/m3, the mass density (293.15 K, x1 = 0.2987) was 1021 kg/m3 and the mass density (293.15 K, x1 = 0.4007) was 1055 kg/m3. It also gave a mass density (293.15 K, x1 = 0.5007) of 1080 kg/m3, a mass density (293.15 K, x1 = 0.5993) of 1099 kg/m3 and a mass density (293.15 K, x1 = 0.8) of 1128 kg/m3. It also gave a mass density (298.15 K, x1 = 0.0397) of 841 kg/m3, a mass density (298.15 K, x1 = 0.0802) of 885 kg/m3 and a mass density (298.15 K, x1 = 0.1002) of 903 kg/m3. The mass density (298.15 K, x1 = 0.12) was 919 kg/m3, the mass density (298.15 K, x1 = 0.16) was 948 kg/m3 and the mass density (298.15 K, x1 = 0.1992) was 971 kg/m3. It also gave a mass density (298.15 K, x1 = 0.2987) of 1017 kg/m3, a mass density (298.15 K, x1 = 0.5007) of 1076 kg/m3 and a mass density (298.15 K, x1 = 0.5993) of 1096 kg/m3. For the same molecule, the mass density (298.15 K, x1 = 0.8) was 1125 kg/m3, the mass density (298.15 K, x1 = 0.8985) was 1135 kg/m3 and the mass density (298.15 K, x1 = 1) was 1145 kg/m3. For the same molecule, the mass density (303.15 K, x1 = 0.0397) was 837 kg/m3, the mass density (303.15 K, x1 = 0.0802) was 881 kg/m3 and the mass density (303.15 K, x1 = 0.1002) was 899 kg/m3. The mass density (303.15 K, x1 = 0.12) was 916 kg/m3, the mass density (303.15 K, x1 = 0.16) was 944 kg/m3 and the mass density (303.15 K, x1 = 0.1992) was 968 kg/m3. For the same molecule, the mass density (303.15 K, x1 = 0.2987) was 1014 kg/m3, the mass density (303.15 K, x1 = 0.5007) was 1073 kg/m3 and the mass density (303.15 K, x1 = 0.5993) was 1092 kg/m3. It also gave a mass density (303.15 K, x1 = 0.7003) of 1108 kg/m3, a mass density (303.15 K, x1 = 1) of 1141 kg/m3 and a mass density (308.15 K, x1 = 0.0397) of 833 kg/m3. The mass density (308.15 K, x1 = 0.0802) was 877 kg/m3, the mass density (308.15 K, x1 = 0.1002) was 895 kg/m3 and the mass density (308.15 K, x1 = 0.12) was 912 kg/m3. The mass density (308.15 K, x1 = 0.16) was 940 kg/m3, the mass density (308.15 K, x1 = 0.1992) was 964 kg/m3 and the mass density (308.15 K, x1 = 0.2987) was 1010 kg/m3. It also gave a mass density (308.15 K, x1 = 0.4007) of 1044 kg/m3, a mass density (308.15 K, x1 = 0.5007) of 1069 kg/m3 and a mass density (308.15 K, x1 = 0.5993) of 1089 kg/m3. For the same molecule, the mass density (308.15 K, x1 = 0.8) was 1118 kg/m3, the mass density (308.15 K, x1 = 0.8985) was 1129 kg/m3 and the mass density (308.15 K, x1 = 1) was 1138 kg/m3. The mass density (313.15 K, x1 = 0.0397) was 829 kg/m3, the mass density (313.15 K, x1 = 0.0802) was 873 kg/m3 and the mass density (313.15 K, x1 = 0.1002) was 891 kg/m3. For the same molecule, the mass density (313.15 K, x1 = 0.12) was 908 kg/m3, the mass density (313.15 K, x1 = 0.16) was 937 kg/m3 and the mass density (313.15 K, x1 = 0.1992) was 960 kg/m3. For the same molecule, the mass density (313.15 K, x1 = 0.2987) was 1007 kg/m3, the mass density (313.15 K, x1 = 0.4007) was 1040 kg/m3 and the mass density (313.15 K, x1 = 0.5007) was 1066 kg/m3. It also gave a mass density (313.15 K, x1 = 0.5993) of 1085 kg/m3, a mass density (313.15 K, x1 = 0.7003) of 1101 kg/m3 and a mass density (313.15 K, x1 = 0.8) of 1114 kg/m3. The mass density (313.15 K, x1 = 0.8985) was 1125 kg/m3, the mass density (318.15 K, x1 = 0.0201) was 798 kg/m3 and the mass density (318.15 K, x1 = 0.0802) was 869 kg/m3. For the same molecule, the mass density (318.15 K, x1 = 0.1002) was 887 kg/m3, the mass density (318.15 K, x1 = 0.12) was 904 kg/m3 and the mass density (318.15 K, x1 = 0.1992) was 956 kg/m3. The mass density (318.15 K, x1 = 0.2987) was 1003 kg/m3, the mass density (318.15 K, x1 = 0.4007) was 1037 kg/m3 and the mass density (318.15 K, x1 = 0.5007) was 1062 kg/m3. It also gave a mass density (318.15 K, x1 = 0.5993) of 1082 kg/m3, a mass density (318.15 K, x1 = 0.7003) of 1098 kg/m3 and a mass density (318.15 K, x1 = 0.8) of 1111 kg/m3. The mass density (318.15 K, x1 = 1) was 1131 kg/m3, the mass density (323.15 K, x1 = 0.0397) was 820 kg/m3 and the mass density (323.15 K, x1 = 0.1002) was 883 kg/m3. The mass density (323.15 K, x1 = 0.12) was 900 kg/m3, the mass density (323.15 K, x1 = 0.16) was 929 kg/m3 and the mass density (323.15 K, x1 = 0.1992) was 953 kg/m3. The mass density (323.15 K, x1 = 0.2987) was 999 kg/m3, the mass density (323.15 K, x1 = 0.4007) was 1033 kg/m3 and the mass density (323.15 K, x1 = 0.5007) was 1059 kg/m3. For the same molecule, the mass density (323.15 K, x1 = 0.5993) was 1078 kg/m3, the mass density (323.15 K, x1 = 0.8) was 1107 kg/m3 and the mass density (323.15 K, x1 = 0.8985) was 1118 kg/m3. The mass density (323.15 K, x1 = 1) was 1128 kg/m3, the mass density (328.15 K, x1 = 0.0201) was 790 kg/m3 and the mass density (328.15 K, x1 = 0.0397) was 816 kg/m3. It also gave a mass density (328.15 K, x1 = 0.0802) of 861 kg/m3, a mass density (328.15 K, x1 = 0.12) of 896 kg/m3 and a mass density (328.15 K, x1 = 0.16) of 925 kg/m3. For the same molecule, the mass density (328.15 K, x1 = 0.2987) was 996 kg/m3, the mass density (328.15 K, x1 = 0.4007) was 1030 kg/m3 and the mass density (328.15 K, x1 = 0.5007) was 1055 kg/m3. It also gave a mass density (328.15 K, x1 = 0.7003) of 1091 kg/m3, a mass density (328.15 K, x1 = 0.8) of 1104 kg/m3 and a mass density (328.15 K, x1 = 0.8985) of 1115 kg/m3. The mass density (328.15 K, x1 = 1) was 1124 kg/m3, the mass density (333.15 K, x1 = 0.0201) was 785 kg/m3 and the mass density (333.15 K, x1 = 0.0802) was 857 kg/m3. For the same molecule, the mass density (333.15 K, x1 = 0.1002) was 875 kg/m3, the mass density (333.15 K, x1 = 0.12) was 892 kg/m3 and the mass density (333.15 K, x1 = 0.16) was 921 kg/m3. The mass density (333.15 K, x1 = 0.1992) was 945 kg/m3, the mass density (333.15 K, x1 = 0.2987) was 992 kg/m3 and the mass density (333.15 K, x1 = 0.5007) was 1052 kg/m3. It also gave a mass density (333.15 K, x1 = 0.5993) of 1071 kg/m3, a mass density (333.15 K, x1 = 0.7003) of 1088 kg/m3 and a mass density (333.15 K, x1 = 0.8) of 1101 kg/m3. It also gave a mass density (333.15 K, x1 = 0.8985) of 1112 kg/m3, a mass density (333.15 K, x1 = 1) of 1121 kg/m3 and a mass density (338.15 K, x1 = 0.0201) of 781 kg/m3. For the same molecule, the mass density (338.15 K, x1 = 0.0397) was 807 kg/m3, the mass density (338.15 K, x1 = 0.1002) was 871 kg/m3 and the mass density (338.15 K, x1 = 0.16) was 917 kg/m3. For the same molecule, the mass density (338.15 K, x1 = 0.1992) was 941 kg/m3, the mass density (338.15 K, x1 = 0.2987) was 988 kg/m3 and the mass density (338.15 K, x1 = 0.4007) was 1023 kg/m3. For the same molecule, the mass density (338.15 K, x1 = 0.5007) was 1048 kg/m3, the mass density (338.15 K, x1 = 0.5993) was 1068 kg/m3 and the mass density (338.15 K, x1 = 0.8) was 1097 kg/m3. The mass density (338.15 K, x1 = 0.8985) was 1108 kg/m3 and the mass density (338.15 K, x1 = 1) was 1117 kg/m3.
`CCO` + CCOP(=O)([O-])OCC.CC[n+]1ccn(C)c1 showed a mass density (293.15 K, x2 = 0) of 790 kg/m3, a mass density (298.15 K, x2 = 0) of 785 kg/m3 and a mass density (303.15 K, x2 = 0) of 781 kg/m3. It also gave a mass density (308.15 K, x2 = 0) of 777 kg/m3, a mass density (313.15 K, x2 = 0) of 772 kg/m3 and a mass density (323.15 K, x2 = 0) of 763 kg/m3. It also gave a mass density (328.15 K, x2 = 0) of 759 kg/m3, a mass density (333.15 K, x2 = 0) of 754 kg/m3 and a mass density (338.15 K, x2 = 0) of 749 kg/m3.
